Assay results: PubChem BioAssay AID938 (National Center for Advancing Translational Sciences (NCATS), 2007)
Several values for one entry are separate records, joined by “and”; a condition that tells them apart may be missing. Identical values can stand only once. Hit rate of the full screen: of about 73,000 compounds, about 1,800 (2.5%) were called active. Inconclusive means that the source gave no clear call. Such entries were picked first, then a sample of the others. Calls come from the whole dose curve; as a rule, active = well fitted activation curve with a large enough effect; inconclusive = small, poorly fitted or top-dose-only effect; inactive = no such curve, though single readings can be large or run the other way. Potencies of inconclusive entries are doubtful fits and often do not repeat.

Assay: qHTS Assay for Agonists of the Thyroid Stimulating Hormone Receptor: Activators of Intracellular cAMP Concentrations in Parental HEK 293; note: nearly all actives have a fitted effect of over 55% in size; for activation: % of control where 0% means no effect
Conditions: parental HEK293 CNG cAMP sensor, membrane potential fluorescence; activation: at 57.1 µM (top of the series) unless noted
Summary of the method: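 Counterscreen for endogenous-receptor signalling: CNG-channel HEK 293 cells report cAMP rise by membrane depolarization. After 60 min dye equilibration with 100 uM RO 20-1724, compounds incubated 30 min before bottom-read fluorescence at 590 nm.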
Potency is the fitted concentration of half-maximal effect; tags give direction and shape of the fitted curve.

**Q.** Which activation does the source give for O=c1oc2cc(N=Cc3ccc4c(c3)OCO4)ccc2c2ccccc12 here?
**A.** Its activation is inactive: 0.852% [at 11.4 µM].

**Q.** Which Potency does the source give for COc1cccc(-c2ccc3ncnc(N(C)C)c3c2)c1 here?
**A.** The Potency was active: 25.1 µM.

**Q.** For CN1CCN(c2ccc(Cl)cc2NS(=O)(=O)c2ccccc2Cl)CC1, which “activation” value is on record?
**A.** The value was inactive: 16.9%.

**Q.** Which Potency does the source give for CCOC(=O)c1[nH]c(C)c(C(=O)Nc2ccc(C)c(F)c2)c1C here?
**A.** Its Potency is inconclusive: 20 µM [activator, partial curve].

**Q.** With CO[C@H]1COC(=O)[C@@H](C)COC(=O)[C@H](C)NC(=O)C/C=C\[C@H]1C as the compound, how does the activation read?
**A.** The activation was inactive: -1.66% [at 11.4 µM].

**Q.** For Fc1ccc(Cn2nnnc2CN2CCN(C3CCCCC3)CC2)cc1, which Potency is on record?
**A.** The Potency was active: 10 µM.

**Q.** For Cc1occc1-c1nnc(SCC(=O)N2c3ccccc3CCc3ccccc32)n1C, which Potency is on record?
**A.** The Potency was inconclusive: 20 µM [activator, single point].

**Q.** For COc1ccc(-c2cc(C(F)(F)F)n3nc(C(=O)N4CCCCC4)cc3n2)cc1, which Potency is on record?
**A.** Its Potency is inconclusive: 39.8 µM [activator, single point].

**Q.** With CS(=O)(=O)N1CCC2(CC1)CN(c1ccccn1)C2 as the compound, how does the “activation” value read?
**A.** The value was inactive: 17.2%.

**Q.** For Cc1nc(NC(=O)CSc2nnnn2Cc2ccccc2)sc1C, which Potency is on record?
**A.** The Potency was inconclusive: 31.6 µM [activator, single point].

**Q.** For COc1ccc(C(c2nnnn2C(C)(C)C)N2CCN(c3nc4ccccc4s3)CC2)cc1OC (stereo not given), which Potency is on record?
**A.** Its Potency is inconclusive: 1.26 µM [activator, full curve].

**Q.** For Cc1ccc2[nH]c(=O)c(CN(CCc3ccccc3)Cc3nnnn3CC3CCCO3)cc2c1 (stereo not given), which Potency is on record?
**A.** Its Potency is inconclusive: 12.6 µM [activator, partial curve].

**Q.** Which Potency does the source give for c1ccc(OCCSc2nnc3sc4ccccc4n23)cc1 here?
**A.** Its Potency is inconclusive: 20 µM [activator, partial curve].

**Q.** For COc1ccc(-c2nnc(SCC(=O)N3CCC(Cc4ccccc4)CC3)o2)cc1OC, which Potency is on record?
**A.** Its Potency is inconclusive: 25.1 µM [activator, single point].

**Q.** Which “activation” value does the source give for O=C(O)c1cccc(COCC(F)(F)C(F)F)c1 here?
**A.** Its value is inactive: 6.37%.

**Q.** For N#Cc1ccccc1-c1ccc2ncnc(NCc3cccs3)c2c1, which Potency is on record?
**A.** The Potency was active: 15.8 µM.

**Q.** Which Potency does the source give for COc1ncc2nc(C)c(=O)n(Cc3ccc(F)cc3)c2n1 here?
**A.** Its Potency is inconclusive: 20 µM [activator, single point].

**Q.** Which Potency does the source give for O=C(c1ccco1)N1CCCC(c2nc(-c3ccc(S(=O)(=O)NCc4ccccc4)cc3)no2)C1 (stereo not given) here?
**A.** Its Potency is active: 25.1 µM.

**Q.** With COCCn1c(=O)c(-c2ccc(Cl)cc2)nc2cnc(Oc3ccc(OC)cc3)nc21 as the compound, how does the “activation” value read?
**A.** The value was inactive: -4.16%.

**Q.** Which Potency does the source give for O=C(c1cccc(F)c1)N1CCC2(CC1)CCN(c1ccccn1)CC2 here?
**A.** Its Potency is inconclusive: 7.94 µM [activator, full curve, poor fit].

**Q.** With COc1cccc(Cn2c(=O)cnc3cnc(N4CCOCC4)nc32)c1 as the compound, how does the Potency read?
**A.** Its Potency is inconclusive: 3.16 µM [activator, full curve].

**Q.** Which activation does the source give for CC[C@@H](c1ccccc1)n1c(=O)n2n(c1=O)[C@H]1[C@H](O)[C@H]3O[C@H]3C(=O)[C@H]1CC2 here?
**A.** Its activation is inactive: 3.34% [at 11.4 µM].

**Q.** With Cc1cnc(CNc2ncnc3ccc(-c4cccc(C#N)c4)cc23)cn1 as the compound, how does the “activation” value read?
**A.** Its value is inactive: -2.7%.

**Q.** For COc1cc(NC(=O)c2noc3c2CCCC3)c(OC)cc1Cl, which Potency is on record?
**A.** Its Potency is inconclusive: 12.6 µM [activator, partial curve].

**Q.** For CCCCn1cnc2c(cnn2-c2ccc(Cl)cc2)c1=O, which Potency is on record?
**A.** Its Potency is inconclusive: 5.01 µM [activator, single point].

**Q.** Which Potency does the source give for O=C(Nc1cccc(Cl)c1N1CCCCC1)c1ccc2c(c1)OCCO2 here?
**A.** The Potency was inconclusive: 25.1 µM [activator, partial curve].

**Q.** Which Potency does the source give for CCOC(=O)C1CCCN(C(=O)C2CCC(CNS(=O)(=O)c3ccc(NC(C)=O)cc3)CC2)C1 (stereo not given) here?
**A.** Its Potency is inconclusive: 25.1 µM [activator, single point].

**Q.** For O=C(COC(=O)c1ccncc1)NCc1ccccc1, which Potency is on record?
**A.** Its Potency is inconclusive: 39.8 µM [activator, single point].

**Q.** Which “activation” value does the source give for COC(=O)c1cc(OC)c(OC)cc1NC(=O)C1CCC(=O)N1S(=O)(=O)c1ccc(C)cc1 (stereo not given) here?
**A.** Its value is inactive: 1.38%.

**Q.** With CCc1nc(NCc2ccccn2)c2oc3ccccc3c2n1 as the compound, how does the Potency read?
**A.** Its Potency is inconclusive: 25.1 µM [activator, partial curve].

**Q.** Which activation does the source give for CC(C)CO/N=C1/C[C@@H](O)[C@@H](O)[C@@H]2[C@@H]3C(=O)N(c4cccc(Oc5ccccc5)c4)C(=O)[C@H]3CC[C@@H]12 here?
**A.** Its activation is inactive: 2.32% [at 11.4 µM].

**Q.** Which “activation” value does the source give for COC(=O)c1[nH]c2c(c1C)C(=O)CC(c1ccccc1)C2 (stereo not given) here?
**A.** Its value is inactive: 8.73%.

**Q.** Which Potency does the source give for COc1ccc(C(=O)N2CCC3(CCCN(Cc4nccs4)C3)CC2)cc1 here?
**A.** Its Potency is inconclusive: 39.8 µM [activator, single point].

**Q.** Which Potency does the source give for O=C(COc1ccc(Cl)cc1Cl)N(Cc1ccco1)C1CCS(=O)(=O)C1 (stereo not given) here?
**A.** The Potency was inconclusive: 15.8 µM [activator, partial curve].

**Q.** With CCCCn1c(SCC(=O)N2CCN(c3ccccc3)CC2)nc2ccsc2c1=O as the compound, how does the Potency read?
**A.** Its Potency is inconclusive: 3.98 µM [activator, partial curve].

**Q.** With CCOc1ccccc1N(C(=O)CNC(=O)c1ccco1)C(C(=O)NC1CCCC1)c1cccnc1 (stereo not given) as the compound, how does the Potency read?
**A.** Its Potency is inconclusive: 31.6 µM [activator, single point].

**Q.** With CCOC(=O)c1ccccc1NC(=O)C1COc2ccccc2O1 (stereo not given) as the compound, how does the Potency read?
**A.** Its Potency is active: 25.1 µM.

**Q.** Which Potency does the source give for Fc1ccc(N2CCN(C(c3cccs3)c3nnnn3C3CCCC3)CC2)cc1 (stereo not given) here?
**A.** The Potency was inconclusive: 39.8 µM [activator, single point].

**Q.** For Cc1ccc(CNc2ccc3c(c2)ncn3C)cc1, which “activation” value is on record?
**A.** Its value is inactive: -9.88%.

**Q.** Which Potency does the source give for Cc1cnc(CNc2nc(-c3ccoc3)nc3ccccc23)cn1 here?
**A.** The Potency was inconclusive: 39.8 µM [activator, single point].

**Q.** With COc1ccc(-c2cc(C(=O)N3CCCc4ccccc43)no2)cc1 as the compound, how does the Potency read?
**A.** Its Potency is active: 20 µM.

**Q.** For CNS(=O)(=O)c1ccccc1C(=N)c1ccccc1, which activation is on record?
**A.** The activation was inactive: 4.98% [at 11.4 µM].

**Q.** For COc1ccc(-c2noc(CN(C)S(=O)(=O)c3ccc(Cl)cc3)n2)cc1OC, which Potency is on record?
**A.** Its Potency is inconclusive: 39.8 µM [activator, single point].

**Q.** Which Potency does the source give for Cc1cc(C(F)(F)F)nn1CC(=O)NCc1ccccc1 here?
**A.** The Potency was inconclusive: 0.794 µM [activator, single point].

**Q.** For CCc1cc2c3c(c(=O)oc2cc1OC)CCCC3, which Potency is on record?
**A.** The Potency was inconclusive: 25.1 µM [activator, partial curve].

**Q.** For CC(C)CC(c1nnnn1C1CCCC1)N1CCN(C(=O)c2ccco2)CC1 (stereo not given), which Potency is on record?
**A.** Its Potency is active: 7.94 µM.

**Q.** With COc1cc2oc(-c3ccccc3)cc(=O)c2cc1O as the compound, how does the “activation” value read?
**A.** Its value is inactive: 8.4%.

**Q.** For Cc1c(CC(C)(C)C(=O)O)n(Cc2ccc(Cl)cc2)c2ccc(F)cc12, which Potency is on record?
**A.** The Potency was inconclusive: 6.31 µM [activator, single point] and inconclusive: 39.8 µM [activator, single point].

**Q.** With CCCCOc1ccccc1NC(=O)CSc1nnnn1C(C)(C)C as the compound, how does the Potency read?
**A.** The Potency was inconclusive: 12.6 µM [activator, partial curve, poor fit].

**Q.** With COC(=O)N1[C@H](Cc2ccccc2)C=C[C@]1(C)C(=O)O as the compound, how does the “activation” value read?
**A.** Its value is inactive: 23.9%.

**Q.** For CCOC(=O)c1c(NC(=O)Cn2c(C)nc3ccccc32)sc2c1CCC2, which “activation” value is on record?
**A.** Its value is inactive: 22.7%.

**Q.** Which Potency does the source give for COc1cc(NC(=O)c2nccnc2C(=O)O)cc(OC)c1 here?
**A.** Its Potency is inconclusive: 7.94 µM [activator, single point].

**Q.** For Cc1cccc(NC(=O)Cn2c(C)c(C#N)c3ccccc32)c1C, which Potency is on record?
**A.** The Potency was inconclusive: 12.6 µM [activator, partial curve].

**Q.** With CC(=O)c1cc2c(cc1NC(=O)CCc1ccccc1)OCO2 as the compound, how does the Potency read?
**A.** The Potency was inconclusive: 15.8 µM [activator, partial curve].

**Q.** For CCn1c(=O)cc(SCC(=O)N2CCN(c3ccccc3OC)CC2)c2ccccc21, which “activation” value is on record?
**A.** Its value is inactive: 14.3%.

**Q.** Which Potency does the source give for CCC(c1nnnn1Cc1ccco1)N(Cc1cc2cc(OC)ccc2[nH]c1=O)C1CCCCC1 (stereo not given) here?
**A.** The Potency was active: 10 µM.

**Q.** Which Potency does the source give for Cc1cccc(N2CCN(C(=O)CSCc3c(C)noc3C)CC2)c1C here?
**A.** Its Potency is inconclusive: 25.1 µM [activator, single point].

**Q.** With COCCNc1ccnc(-c2ccccc2CN(C)C)n1 as the compound, how does the “activation” value read?
**A.** The value was inactive: -9.92%.

**Q.** With Cc1cccn2cc(CCNS(=O)(=O)c3ccc4c(c3)OCCO4)nc12 as the compound, how does the Potency read?
**A.** The Potency was inconclusive: 20 µM [activator, single point].

**Q.** Which Potency does the source give for C[C@@H](C(=O)O)[C@H]1C[C@]1(C)[C@H](NC(=O)OCc1ccccc1)c1ccccc1 here?
**A.** Its Potency is inconclusive: 3.98 µM [activator, single point].

**Q.** With CCCC/C=C/C(NC(=O)c1ccc(C(F)(F)F)cc1)c1ccccc1 (stereo not given) as the compound, how does the Potency read?
**A.** The Potency was inconclusive: 31.6 µM [activator, single point].

**Q.** Which Potency does the source give for CCOC(=O)c1c(C)nc(-c2ccccc2)nc1NC(=O)C(C)C here?
**A.** Its Potency is inconclusive: 25.1 µM [activator, partial curve].

**Q.** With COc1cc(CSc2nnnn2-c2ccc(C)cc2)cc(OC)c1OC as the compound, how does the Potency read?
**A.** Its Potency is inconclusive: 12.6 µM [activator, partial curve].

**Q.** Which Potency does the source give for Cc1cccc(CNc2nc(-c3cccnc3)nc3ccccc23)c1 here?
**A.** Its Potency is inconclusive: 15.8 µM [activator, partial curve].

**Q.** With CC(=O)Nc1ccc(C(=O)CSc2nnc(Cn3nnc4ccccc43)n2C)cc1 as the compound, how does the “activation” value read?
**A.** The value was inactive: -4.17%.

**Q.** Which Potency does the source give for c1ccc(C(Cc2nc(-c3ccncc3)no2)c2ccccc2)cc1 here?
**A.** The Potency was active: 15.8 µM.

**Q.** Which “activation” value does the source give for CS(=O)(=O)Nc1cccc(-c2nccc(Nc3ccc(F)cc3)n2)c1 here?
**A.** The value was inactive: -20.8%.

**Q.** Which Potency does the source give for c1ccc(CNc2ncnc3ccc(-c4ccc5c(c4)OCO5)cc23)cc1 here?
**A.** Its Potency is inconclusive: 1.26 µM [activator, full curve, poor fit].

**Q.** For COc1ccc(C(=O)Nc2cccc(C)c2)cc1S(=O)(=O)N1CCOCC1, which Potency is on record?
**A.** Its Potency is inconclusive: 2 µM [activator, partial curve].

**Q.** For C=C(C)C1CC=C(CN2CCC(C(=O)OCC)CC2)CC1 (stereo not given), which Potency is on record?
**A.** Its Potency is inconclusive: 20 µM [activator, partial curve].
